# Source: the supplement of paper PMC8728848
# This is one part of the list.
# B1: Clec18C (Homo sapiens) (protein)
# chain: MLHPETSPGRGHLLAVLLALLGTAWAEVWPPQLQEQAPMAGALNRKESFLLLSLHNRLRSWVQPPAADMRRLDWSDSLAQLAQARAALCGTPTPSLASGLWRTLQVGWNMQLLPAGLVSFVEVVSLWFAEGQRYSHAAGECARNATCTHYTQLVWATSSQLGCGRHLCSAGQAAIEAFVCAYSPRGNWEVNGKTIVPYKKGAWCSLCTASVSGCFKAWDHAGGLCEVPRNPCRMSCQNHGRLNISTCHCHCPPGYTGRYCQVRCSLQCVHGRLREEECSCVCDIGYGGAQCATKVHFPFHTCDLRIDGDCFMVSSEADTYYRARMKCQRKGGVLAQIKSQKVQDILAFYLGRLETTNEVIDSDFETRNFWIGLTYKTAKDSFRWATGEHQAFTSFAFGQPDNHGFGNCVELQASAAFNWNNQRCKTRNRYICQFAQEHISRWGPGS
# Legend:
# Assay in all cases: glycan array binding signal (z-score within array); higher = stronger binding
# Details in all cases: glycan notation: IUPAC condensed, linker removed
# [1] = target: Neu5Ac(a2-8)Neu5Ac
# How it was run: (§1)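 The binding signal is a Z-score computed within each array. Data were drawn from 3228 arrays in the Consortium for Functional Glycomics database, restricted to those with a known protein sequence. Scores were averaged over arrays of the same protein sequence at different concentrations or buffers, and over linkers, and negative values can be taken as non-binding.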
# [2] = target: Neu5Ac(a2-8)Neu5Ac(a2-3)Gal(b1-3)GalNAc(b1-4)[Neu5Ac(a2-3)]Gal(b1-4)Glc
# How it was run: as §1
# [3] = target: Neu5Ac(a2-8)Neu5Ac(a2-3)Gal(b1-3)GalNAc(b1-4)[Neu5Ac(a2-8)Neu5Ac(a2-3)]Gal(b1-4)Glc
# How it was run: as §1
# [4] = target: Neu5Ac(a2-8)Neu5Ac(a2-3)Gal(b1-4)Glc
# How it was run: as §1
# [5] = target: Neu5Ac(a2-8)Neu5Ac(a2-3)Gal(b1-4)GlcNAc
# How it was run: as §1
# [6] = target: Neu5Ac(a2-8)Neu5Ac(a2-3)[Gal(b1-3)GalNAc(b1-4)]Gal(b1-4)Glc
# How it was run: as §1
# [7] = target: Neu5Ac(a2-8)Neu5Ac(a2-3)[GalNAc(b1-4)]Gal(b1-4)Glc
# How it was run: as §1
# [8] = target: Neu5Ac(a2-8)Neu5Ac(a2-8)Neu5Ac
# How it was run: as §1
# [9] = target: Neu5Ac(a2-8)Neu5Ac(a2-8)Neu5Ac(a2-3)Gal(b1-4)Glc
# How it was run: as §1
# [10] = target: Neu5Ac(a2-8)Neu5Ac(a2-8)Neu5Ac(a2-3)[Gal(b1-3)GalNAc(b1-4)]Gal(b1-4)Glc
# How it was run: as §1
# [11] = target: Neu5Ac(a2-8)Neu5Ac(a2-8)Neu5Ac(a2-3)[GalNAc(b1-4)]Gal(b1-4)Glc
# How it was run: as §1
# [12] = target: Neu5Ac(a2-8)Neu5Ac(a2-8)Neu5Ac(a2-8)Neu5Ac(a2-3)[GalNAc(b1-4)]Gal(b1-4)Glc
# How it was run: as §1
# [13] = target: Neu5Ac(a2-8)Neu5Gc(a2-3)Gal(b1-4)GlcNAc
# How it was run: as §1
# [14] = target: Neu5Ac(b2-6)Gal(b1-4)GlcNAc
# How it was run: as §1
# [15] = target: Neu5Ac(b2-6)GalNAc
# How it was run: as §1
# [16] = target: Neu5Ac9Ac(a2-3)Gal(b1-3)GlcNAc
# How it was run: as §1
# [17] = target: Neu5Ac9Ac(a2-3)Gal(b1-4)GlcNAc
# How it was run: as §1
# [18] = target: Neu5Ac9Ac(a2-6)Gal(b1-4)GlcNAc
# How it was run: as §1
# [19] = target: Neu5Gc(a2-3)Gal(b1-3)GlcNAc
# How it was run: as §1
# [20] = target: Neu5Gc(a2-3)Gal(b1-3)[Fuc(a1-4)]GlcNAc
# How it was run: as §1
# [21] = target: Neu5Gc(a2-3)Gal(b1-4)Glc
# How it was run: as §1
# [22] = target: Neu5Gc(a2-3)Gal(b1-4)GlcNAc
# How it was run: as §1
# [23] = target: Neu5Gc(a2-3)Gal(b1-4)GlcNAc(b1-3)Gal(b1-4)GlcNAc(b1-2)Man(a1-3)[Neu5Gc(a2-3)Gal(b1-4)GlcNAc(b1-3)Gal(b1-4)GlcNAc(b1-2)Man(a1-6)]Man(b1-4)GlcNAc(b1-4)GlcNAc
# How it was run: as §1
# [24] = target: Neu5Gc(a2-3)Gal(b1-4)[Fuc(a1-3)]GlcNAc
# How it was run: as §1
# [25] = target: Neu5Gc(a2-6)Gal(b1-4)GlcNAc
# How it was run: as §1
# [26] = target: Neu5Gc(a2-6)GalNAc
# How it was run: as §1
# [27] = target: Neu5Gc(a2-8)Neu5Ac(a2-3)Gal(b1-4)GlcNAc
# How it was run: as §1
# [28] = target: Neu5Gc(a2-8)Neu5Gc(a2-3)Gal(b1-4)GlcNAc
# How it was run: as §1
# [29] = target: Neu5Gc(a2-8)Neu5Gc(a2-3)Gal(b1-4)GlcNAc(b1-3)Gal(b1-4)GlcNAc
# How it was run: as §1
# [30] = target: Neu5Gc(a2-8)Neu5Gc(a2-6)Gal(b1-4)GlcNAc
# How it was run: as §1
# [31] = target: Neu5Gc(b2-6)Gal(b1-4)GlcNAc
# How it was run: as §1
binder,measurement,setting,value
B1,glycan array binding signal (z-score),[1],-0.454
same,glycan array binding signal (z-score),[2],-0.598
same,glycan array binding signal (z-score),[3],-0.323
same,glycan array binding signal (z-score),[4],-0.582
same,glycan array binding signal (z-score),[5],-0.498
same,glycan array binding signal (z-score),[6],0.17
same,glycan array binding signal (z-score),[7],-0.481
same,glycan array binding signal (z-score),[8],-0.559
same,glycan array binding signal (z-score),[9],-0.499
same,glycan array binding signal (z-score),[10],-0.24
same,glycan array binding signal (z-score),[11],-0.493
same,glycan array binding signal (z-score),[12],-0.363
same,glycan array binding signal (z-score),[13],-0.583
same,glycan array binding signal (z-score),[14],-0.339
same,glycan array binding signal (z-score),[15],-0.343
same,glycan array binding signal (z-score),[16],-0.566
same,glycan array binding signal (z-score),[17],-0.565
same,glycan array binding signal (z-score),[18],-0.499
same,glycan array binding signal (z-score),[19],-0.606
same,glycan array binding signal (z-score),[20],-0.448
same,glycan array binding signal (z-score),[21],-0.296
same,glycan array binding signal (z-score),[22],-0.549
same,glycan array binding signal (z-score),[23],-0.288
same,glycan array binding signal (z-score),[24],0.57
same,glycan array binding signal (z-score),[25],-0.099
same,glycan array binding signal (z-score),[26],-0.265
same,glycan array binding signal (z-score),[27],0.261
same,glycan array binding signal (z-score),[28],-0.62
same,glycan array binding signal (z-score),[29],-0.62
same,glycan array binding signal (z-score),[30],0.623
same,glycan array binding signal (z-score),[31],-0.13
